From US20240409609A1, “REVERSIBLE LYSINE COVALENT MODIFIERS OF EGFR AND USES THEREOF” (Terremoto Biosciences, Inc., priority 2021, published 2024) come the findings set out here.

The target of test [1] is EGFR L858R/T790M/C797S triple-mutant protein (residues 668-1210) (Homo sapiens (Human), UniProt P00533, C797S/L858R/T790M). Description: Intact mass spectrometry of covalent binding with brigatinib competition. To be noted: compound 1.5 uM, EGFR 0.8 uM, NaBH4 reduction; for covalent complex formation by intact mass spectrometry: absence of competitor. As for the experimental part: Identification of covalent binding by intact mass spectrometry for Table 5 compounds For intact mass spectrometry experiments EGFR L^858R/T790M/C797S triple-mutant protein (residues 668-1210, Biortus, 0.8 uM) was incubated with compound from Table 5 (1.5 uM).
Freshly dissolved NaBH4 in PBS was added to 5 mM final concentration for 30 min on ice to reduce imines into mass-spec stable amines. Reduction reactions were quenched by addition of 100% volume acetonitrile+1% TFA prior to injection on a Waters BioAccord LC-MS.

The target of test [2] is EGFR L858R/T790M/C797S triple-mutant protein (Homo sapiens (Human), UniProt P00533, C797S/L858R/T790M). Put plainly: Intact-protein mass spectrometry of EGFR protein incubated with compound. The format is binding.
Test [3] concerns the target T1, EGFR L858R/T790M/C797S (Homo sapiens (Human), UniProt P00533, C797S/L858R/T790M). Put plainly: EGFR jump dilution study. The format is biochemical. The settings on record: for off-rate kinetics after jump dilution: 100-fold dilution, 1 mM ATP, up to 10 hrs. As for the experimental part:
(§1) Enzyme:inhibitor complexes were pre-formed at EGFR 100Y^1 final reaction concentration by incubating enzyme with an inhibitor at the greater concentration of either 10Y^1 inhibitor IC50, or 1:1.2 stoichiometry with enzyme.
(§2) After incubating enzyme:inhibitor complexes on ice for 30 min, reactions were diluted in two steps 100-fold into reaction buffer supplemented with 1 mM ATP, and 20 uM AssayQuant substrate (AQT0734), with final reaction volumes of 20 μL in a 384 well reaction plate. Wells were read immediately and at timepoints post-dilution for up to 10 hrs in a PerkinElmer Ensight plate reader, according to the AssayQuant manufacturer's instructions.
(§3) Data processing: Raw fluorescence signal was first background corrected by subtracting the fluorescence intensity of wells containing only the AssayQuant substrate, and no enzyme. Enzyme activity was normalized relative DMSO controls for each enzyme at each timepoint. In this way, DMSO-treated wells appear as a constant normalized activity=1 throughout the assay.
(§4) The X-axis of each of the three graphs represents the time after dilution that the enzyme activity was measured, with t=0 representing the time of jump dilution. The Y-axis of each graph provides the enzymatic activity at each time point. Enzymatic activity is normalized to the DMSO-treated control samples (i.e., the same enzyme variant treated with DMSO instead of compound). As such, a DMSO-normalized value of 1.0 represents full enzymatic activity (i.e., equivalent to the DMSO-treated control), while a value below 1.0 represents reduced activity relative to control (i.e., some degree of enzyme inhibition at the time measured). The data points over time (e.g., from 0 to 600 minutes post-dilution) are therefore indicative of the off-rate for the compound. […] Thus, the jump-dilution data provided a qualitative estimate of the off-rate kinetics for each compound against the panel of EGFR variants. Experiments were run in duplicate, resulting in two different data sets for each graph.

The target in test [4] is EGFR del19/T790M/C797S (Homo sapiens (Human), UniProt P00533, C797S/DEL746-750/T790M). Description: EGFR jump dilution study. The format is biochemical. The settings on record: 100-fold dilution, 1 mM ATP, up to 10 hrs. As for the experimental part:
as §1, §2, §3, §4

In test [5] the target is EGFR (d746-750) T790M C797S (Homo sapiens (Human), UniProt P00533, C797S/DEL746-750/T790M). Description: EGFR biochemical assay (AssayQuant chelation-enhanced fluorescence). To be noted: read-out: AssayQuant EGFR del19/TM/CS IC50; 30 min preincubation, reaction time 150 min.
The target of test [6] is T1, EGFR L858R/T790M/C797S. The test is described as above. To be noted: read-out: AssayQuant EGFR LR/TM/CS IC50; 30 min preincubation, reaction time 150 min.
Test [7] deals with EGFR L858R/T790M/C797S protein (residues 668-1210) (Homo sapiens (Human), UniProt P00533, C797S/L858R/T790M). Description: Intact mass spectrometry of covalent binding with BI-4020 competition. To be noted: compound 4.4 uM, EGFR 2.2 uM, NaBH4 reduction, with and without BI-4020 30 uM. As for the experimental part: Freshly dissolved NaBH4 in PBS was added to 5 mM final concentration for 5 min at room temperature to reduce imines to mass-spec stable amines. Reduction reactions were quenched by addition of 100% volume acetonitrile+1% TFA prior to injection on a Waters BioAccord L^C-MS.

The structures appear in SMILES notation.

With `C#CCNC(=O)c1cc(Nc2cc(C3CC3)[nH]n2)nc(N2CCN(Cc3ccc(C=O)c(O)c3)CC2)n1` [Compound 1], the “covalent complex formation by intact mass spectrometry” value in test [1] is recorded as “significant level of covalent complex formation”. For the same compound, the “covalent complex formation (intact-protein mass spectra)” value in test [2] is reported as “covalent complex formation”. For the same compound, the “off-rate kinetics after jump dilution” value in test [3] is “slow-off kinetics”; in test [4] it was “did not exhibit slow-off kinetics”. For the same compound, the DMSO-normalized enzyme activity in test [3] (10 hours (600 minutes) post-dilution) is given as 0.5.

For the compound `C#CCNC(=O)c1cc(Nc2cc(C3CC3)[nH]n2)nc(N2CCN(Cc3ccc(O)c(C=O)c3)CC2)n1` [Compound 2], the “covalent complex formation by intact mass spectrometry” value in test [1] is on record as “significant level of covalent complex formation”. In test [2], the “covalent complex formation (intact-protein mass spectra)” value is “covalent complex formation”.

For `COc1cc(N2CCC(N3CCN(C)CC3)CC2)ccc1Nc1ncc(-c2ccc(O)c(C=O)c2)c(Nc2ccccc2)n1` [Compound 3], the “covalent complex formation by intact mass spectrometry” value in test [1] is “a significant amount of covalent complex was observed”; in test [7], “covalent complex formed between the protein and Compound 3”. The “covalent complex formation by intact mass spectrometry in presence of competitor” value in test [1] (excess brigatinib 20 uM) is “essentially no covalent complex formation”. Also, the IC50 in test [5] was found to be 158 nM; in test [6] it was 76.9 nM. In addition, the “off-rate kinetics after jump dilution” value in test [3] and in test [4] was “slow-off kinetics” each time.
